Measured values reported in PubChem BioAssay AID1963576 (National Center for Advancing Translational Sciences (NCATS), 2024).
The whole screen tested about 46,000 compounds, of which about 60 (0.1%) were called active. About 3% were inconclusive and are not listed. Calls come from the whole dose curve; as a rule, active = well fitted inhibition curve with a large enough effect; inconclusive = small, poorly fitted or top-dose-only effect; inactive = no such curve, though single readings can be large or run the other way. The list shows a part of the results.

Assay: Primary qHTS assay for Inhibitors of ovarian cancer metastasis using an organotypic tumor microenvironment (TME) model.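 For activity change, negative = inhibition: plate controls were DMSO wells for no effect and tomatine positive control wells for full effect.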 Note: nearly all actives have a fitted effect of over 65% in size.
Conditions: SKOV3ip1-GFP adhesion/invasion on 3D omental model, fluorescence; series mostly up to 45.8 µM; activity change, negative = inhibition: at the top concentration
Outline: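 Adhesion/invasion was scored as fixed GFP-labeled SKOV3ip1 cell counts (488/509 nm), normalized to DMSO and tomatine controls. Cancer cells in serum-free medium, with four compound doses (0.36-46 umol/L), sat 2 hr at RT then 16 hr at 37 C on a 48 hr fibroblast/mesothelial/ECM culture.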

Structure (SMILES)	outcome	activity change, negative = inhibition
CCOC(=O)C1CCN(S(=O)(=O)c2cc(-c3cc(C)no3)ccc2OC)CC1	inactive	–
CC(=O)c1ccc(NC(=O)COc2ccccc2-c2nc(C(C)C)no2)cc1	–	inactive: 0.11%
CCOC(=O)c1c(C)[nH]c(C)c1S(=O)(=O)NCC(=O)Nc1cc(Cl)ccc1OC	inactive	–
CC(C)C[C@H](CC(=O)O)C(=O)N[C@@H](Cc1c[nH]c2ccccc12)C(=O)N[C@@H](C)c1ccccc1	–	inactive: 5.8%
CC(=O)c1ccc(N2CCN(C(=O)Nc3cn(CC(C)C)c(=O)c4ccccc34)CC2)cc1	inactive	–
COc1cc(OC)cc(-c2nc3nc(C)c(CCC(=O)Nc4ccccc4)c(C)n3n2)c1	inactive	–
CC(C)(C)C(=O)Cn1c(=O)n(CCCCCC(=O)NCc2ccccc2Cl)c(=O)c2sccc21	–	inactive: 11.7%
Cc1ccc(NC(=O)C(Cc2ccccc2)NS(=O)(=O)c2ccc3c(c2)oc(=O)n3C)cc1C (configuration not stated)	–	inactive: 5.02%
CCc1ccc(NC(=O)Cn2c(C(=O)OC)cc3oc(C)cc32)cc1	–	inactive: 8.54%
CCN1CCN(Cc2nc3cc(NC(=O)c4cccc([N+](=O)[O-])c4)ccc3n2CC)CC1	–	inactive: -11.6%
COc1ccc(C2CC(=O)Nc3cc4c(cc32)OCO4)c(OC)c1 (configuration not stated)	inactive	–
O=C(CSc1nc(-c2ccco2)nc2cc(=O)[nH]n12)Nc1ccc(F)cc1	–	inactive: 0.939%
Cc1ccc(C)c(NC(=O)CSc2nnc(NC(=O)Nc3ccccc3)s2)c1	–	inactive: 2.19%
CCCCCCC(=O)Nc1cc2nc3c(nc2cc1C)c(=O)n(C)c(=O)n3C	–	inactive: 3.05%
Cc1ccc(CCNC(=O)C(C)n2nc(C)c3c(C)n(-c4ccc(C)cc4)nc3c2=O)cc1 (configuration not stated)	–	inactive: -20.2%
COc1ccc(NC(=O)CN2CCN(C3CCCCC3)C(=O)C2=O)cc1	inactive	–
CCc1ccc(C2CC(=O)c3c([nH]c(C(=O)OC4CCCCCC4)c3C)C2)cc1 (configuration not stated)	–	inactive: 0.532%
COc1ccc(CCNC(=O)c2nc(SCc3ccc(F)cc3)ncc2Cl)cc1OC	–	inactive: 5.08%
CCOC(=O)N1CCC(NC(=O)c2ccc3c(c2)N(Cc2ccc(F)cc2)C(=O)c2ccccc2S3=O)CC1 (configuration not stated)	–	inactive: 30%
COc1ccc(NC(=O)c2cc(=O)c3cc(C)cc(C)c3o2)cc1	–	inactive: 0.237%
CCOc1cccc2sc(NC(=O)c3ccc(S(=O)(=O)N4CCCCC4)cc3)nc12	–	inactive: -21.4%
O=C(NCCS(=O)(=O)N1CCN(c2ccc(F)cc2)CC1)c1ccccc1Br	–	inactive: -6.8%
Cc1ccc(CNC(=O)c2cc(=O)c3cc(C)c(C)cc3o2)cc1	–	inactive: 8.24%
CC1CCCCN1Cc1c(O)ccc2c(=O)c(-c3ccc(Cl)cc3)coc12 (configuration not stated)	–	inactive: 5.95%

Structure (SMILES)	outcome	activity change, negative = inhibition
COc1ccc(CNC(=O)C2CCCN(C(=O)c3cnn(-c4ccc(F)cc4)c3-n3cccc3)C2)cc1 (configuration not stated)	inactive	–
CCOC(=O)c1c(-c2ccc(Br)cc2)csc1NC(=O)c1ccc(C(C)(C)C)cc1	–	inactive: -2.28%
Cc1ccc(CCNC(=O)c2oc(=O)c3ccccc3c2-c2ccc(C)cc2)cc1	inactive	–
CCCS(=O)(=O)c1nc(S(=O)(=O)c2ccc(C)cc2)c(NCC(C)C)s1	–	inactive: 6.39%
CC1CCN(S(=O)(=O)c2ccc3c(ccc(=O)n3CC(=O)NCc3ccccc3)c2)CC1	–	inactive: 2.94%
COc1ccc(NC(=O)c2cc3c(=O)n(C)c4cc(Cl)ccc4c3s2)cc1Cl	–	inactive: 3.44%
CC(=O)Nc1cccc(NC(=O)CSc2cn(CC(=O)N3CCCC3)c3ccccc23)c1	–	inactive: 1.62%
CC(CNc1nc2ccccc2c2nc(-c3ccccc3)nn12)c1ccccc1 (configuration not stated)	inactive	–
COc1ccccc1NC(=O)C1=C(C)Nc2nc(-c3ccco3)nn2C1c1cccc(C)c1 (configuration not stated)	–	inactive: -11.7%
CCOC(=O)c1c(C)c(C(=O)NCc2ccc(Cl)cc2)c(C)n1C	inactive	–
CCc1ccc(-n2c(=O)c3c(C)c(C(=O)N(C)C)sc3n(CC(=O)Nc3cc(Cl)ccc3C)c2=O)cc1	inactive	–
CCCCNC(=O)Cn1c(=O)cc(C)c2c(C)nn(-c3cccc(Cl)c3C)c21	inactive	–
Cc1noc2ncnc(N3CCCC(C(=O)Nc4cc(F)ccc4F)C3)c12 (configuration not stated)	–	inactive: 0.568%
CC(C)(C)OC(=O)N1CCC(c2c(C(=O)NCc3ccco3)cnn2-c2ccc(F)cc2F)CC1	inactive	–
CCC(=O)Nc1ccc(C)cc1-c1nc2ccccc2n(CC(=O)c2ccc(C)cc2)c1=O	–	inactive: -0.875%
COc1ccc(Cl)cc1NC(=O)C(C)n1c(=O)cc(C(F)(F)F)c2c(C)nn(C)c21 (configuration not stated)	inactive	–
CS(=O)(=O)c1ncc(N(Cc2ccco2)Cc2cccs2)c(C(=O)Nc2ccccc2F)n1	–	inactive: -0.138%
CC(C)(C)OC(=O)N1CCC(c2nnc(SCc3ccccc3Cl)o2)CC1	inactive	–
Cc1cc(-n2c(SCc3ccccc3F)nc3[nH]ncc3c2=O)ccc1Cl	–	inactive: -6.86%
Cc1cc(Cl)ccc1NC(=O)C1CCCN1S(=O)(=O)c1ccc2c(c1)CCCC(=O)N2 (configuration not stated)	inactive	–
Cc1ccc(-c2noc(-c3ccc(NC4CCCC4)c([N+](=O)[O-])c3)n2)cc1	inactive	–
CCc1c(C)sc2c1CCN(C(=O)Nc1ccccc1Cl)C2c1ccc(OC)cc1 (configuration not stated)	–	inactive: 23.1%
COc1ccc(N2C(=O)NC(NS(=O)(=O)c3ccc(NC(C)=O)cc3)(C(F)(F)F)C2=O)cc1 (configuration not stated)	–	inactive: 4.73%
